Conditions: single 2 mL dose, aerosolization, assuming 100% delivery

With `C=C1CC/C=C(\C)CC[C@@H]2[C@@H]1CC2(C)C` [β-caryophyllene] as the molecule, how does the “estimated concentration in the epithelial lining fluid of the lungs” value read?
The value was 603 µg/mL.

From US20230355571A1, “METHOD FOR TREATING VIRAL AND BACTERIAL INFECTION THROUGH INHALATION THERAPY” (priority 2020, published 2023)
